# Test results as given in PubChem BioAssay AID504339 (National Center for Advancing Translational Sciences (NCATS), 2011).
# Among all 390,000 compounds or so, about 17,000 (4.4%) were called active. The inconclusive results got no clear call from the source; some entries with a clear call stand among them for comparison. Calls follow the shape of the dose curve; as a rule, active = well fitted inhibition curve with a large enough effect; inconclusive = small, poorly fitted or top-dose-only effect; inactive = no such curve, though single readings can be large or run the other way. A potency beside an inconclusive call is a rough fit, not a confirmed value.
# Molecular target: Lysine-specific demethylase 4A (Homo sapiens) (UniProt O75164)
# Sequence of UniProt O75164 (O75164 whole entry, looked up, the tested form may be a part): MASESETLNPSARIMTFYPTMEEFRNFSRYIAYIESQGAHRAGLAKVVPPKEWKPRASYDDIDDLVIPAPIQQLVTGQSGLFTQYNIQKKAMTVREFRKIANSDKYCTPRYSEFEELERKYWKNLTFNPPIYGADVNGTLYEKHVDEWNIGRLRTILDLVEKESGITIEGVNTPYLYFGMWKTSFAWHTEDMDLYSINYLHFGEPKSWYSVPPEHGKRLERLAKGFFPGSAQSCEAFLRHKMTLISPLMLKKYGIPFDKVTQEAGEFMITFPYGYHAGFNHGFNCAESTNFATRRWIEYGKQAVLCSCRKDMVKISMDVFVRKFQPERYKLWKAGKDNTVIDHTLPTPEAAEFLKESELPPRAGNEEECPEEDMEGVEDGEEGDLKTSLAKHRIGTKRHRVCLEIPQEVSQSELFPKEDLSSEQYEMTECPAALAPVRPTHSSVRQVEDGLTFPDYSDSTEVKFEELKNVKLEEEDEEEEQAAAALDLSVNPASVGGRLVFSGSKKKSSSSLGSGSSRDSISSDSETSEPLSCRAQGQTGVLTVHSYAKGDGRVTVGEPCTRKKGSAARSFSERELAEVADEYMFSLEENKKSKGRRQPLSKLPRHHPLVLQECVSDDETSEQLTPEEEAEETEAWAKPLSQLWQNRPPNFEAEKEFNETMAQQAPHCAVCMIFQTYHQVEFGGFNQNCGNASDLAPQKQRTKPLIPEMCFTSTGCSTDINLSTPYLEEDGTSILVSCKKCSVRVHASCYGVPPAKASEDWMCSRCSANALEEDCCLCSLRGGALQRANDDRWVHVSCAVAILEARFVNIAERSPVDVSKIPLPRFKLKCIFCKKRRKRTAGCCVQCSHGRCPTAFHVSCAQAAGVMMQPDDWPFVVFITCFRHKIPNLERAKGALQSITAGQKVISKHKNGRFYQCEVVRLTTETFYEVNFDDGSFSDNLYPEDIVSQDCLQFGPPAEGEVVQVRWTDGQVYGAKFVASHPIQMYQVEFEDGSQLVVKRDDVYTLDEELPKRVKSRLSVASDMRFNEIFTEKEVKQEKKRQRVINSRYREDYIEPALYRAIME
# Assay: qHTS Assay for Inhibitors of JMJD2A-Tudor Domain; also: nearly all actives have a fitted effect of over 50% in size
# Details: AlphaScreen JMJD2A-Tudor / H3K4me3 peptide binding; series mostly up to 114 µM
# Potency is read from the fitted curve at half-maximal effect; tags tell the direction and shape of the fitted curve.
row,SMILES,Potency
1,COc1ccc(-n2c(C)cc(C3=NNC(=NC4CC4)SC3)c2C)cc1,"inconclusive: 79.4 µM [inhibitor, partial curve]"
2,NC(=O)[C@H]1CC2(CC(c3cccc(NC(=O)COc4ccc(Cl)cc4)c3)=NO2)CN1C(=O)CC(c1ccccc1)c1ccccc1 (some centres not stated),"inconclusive: 56.2 µM [inhibitor, partial curve]"
3,Cc1cccc(CN2CC34CCC(CC3S2(=O)=O)O4)c1 (configuration not stated),inactive
4,CC(=O)C1=C(O)C(=O)N(c2ccc(O)cc2)C1c1ccc(F)cc1 (configuration not stated),inactive
5,CCc1cc(-c2[nH]ncc2-c2ccc([N+](=O)[O-])cc2)c(O)cc1OC,active: 50.1 µM
6,C#CCOCCOCCOCCNc1nc(N2CCN(C(=O)[C@H](CCC(=O)O)n3cc(C(N)[C@H](C)CC)nn3)CC2)nc(N2CCN(C(=O)[C@H](CCC(=O)O)n3cc(C(N)[C@H](C)CC)nn3)CC2)n1 (some centres not stated),"inconclusive: 100 µM [inhibitor, single point]"
7,COCC(=O)Nc1c(C(=O)Nc2ccc3c(c2)OCO3)oc2ccccc12,"inconclusive: 20 µM [inhibitor, single point]"
8,O=C(Oc1c(Br)cc([N+](=O)[O-])cc1Br)c1cccnc1,"inconclusive: 15.8 µM [inhibitor, full curve, poor fit]"
9,NS(=O)(=O)c1ccc(CCNCc2cc(Br)ccc2OCc2ccccc2F)cc1,"inconclusive: 50.1 µM [inhibitor, partial curve]"
10,CCC1CC=CC2C1C(=O)N(Cc1ccccc1)C2c1ccc(C(F)(F)F)cc1 (configuration not stated),inactive
11,Cc1ccc(C)c(N2CCN(C(=O)C3CCCN(c4ncnc5c4nc4n5CCCCC4)C3)CC2)c1 (configuration not stated),"inconclusive: 44.7 µM [inhibitor, partial curve]"
12,Cc1cc(-c2ccc([N+](=O)[O-])cc2)nc2ccccc12,"inconclusive: 22.4 µM [inhibitor, full curve, poor fit]"
13,Cc1nc(/N=C(\N)NC(=O)NC2CCCCC2)nc2ccccc12,"inconclusive: 63.1 µM [inhibitor, partial curve, poor fit]"
14,O=C(Nc1ccccc1)Nc1ccc2nnsc2c1,active: 79.4 µM
15,CCC(C)(C)NC(=O)c1ccc(Sc2nncn2C)c([N+](=O)[O-])c1,"inconclusive: 100 µM [inhibitor, single point]"
16,COc1ccc(C2(CNC(=O)/C=C/c3ccco3)CCCC2)cc1OC,inactive
17,COc1ccc(C2CC(c3ccccc3)=NN2C(=O)COC(=O)c2cccc(N)c2)cc1 (configuration not stated),"inconclusive: 35.5 µM [inhibitor, partial curve]"
18,Cc1cccc(OCC(=O)N(Cc2ccc(N(C)C)cc2)C2CCS(=O)(=O)C2)c1 (configuration not stated),"inconclusive: 11.2 µM [inhibitor, full curve]"
19,COc1ccc(CNc2ncnc3cc(Cl)ccc23)cc1OC,inactive
20,O=C(Cn1cncn1)N/N=C/c1ccncc1,inactive
21,FC(F)(F)c1ccc(/C=N/N2CCN(Cc3ccccc3)CC2)cc1,"inconclusive: 28.2 µM [inhibitor, partial curve]"
22,NC(=S)Nc1cccc(-c2n[nH]c(=S)o2)c1,"inconclusive: 15.8 µM [inhibitor, partial curve, poor fit]"
23,CN(C)c1ccc(NC(=O)CN2CCC(NC(=O)C3CCCCC3)CC2)cc1,"inconclusive: 50.1 µM [inhibitor, partial curve, poor fit]"

row,SMILES,Potency
1,O=C(COc1ccc([N+](=O)[O-])cc1)N/N=C/c1ccccn1,inactive
2,Cc1ccc(-n2nc(C)c(C(=O)O)c2-n2cccc2)cc1,"inconclusive: 56.2 µM [inhibitor, partial curve]"
3,CCOC(=O)C1CCN(C/C=C/c2ccccc2)CC1,active: 79.4 µM
4,O=C(/C=C/c1ccccc1)c1ccccc1O,"inconclusive: 44.7 µM [inhibitor, partial curve]"
5,Cc1ccc(C(=O)NC(=S)Nc2ccc(NC(=O)c3cccs3)cc2)cc1[N+](=O)[O-],"inconclusive: 89.1 µM [inhibitor, single point]"
6,N#Cc1c(-n2ncnc2-c2ccc(F)cc2)sc2c1CCCCC2,"inconclusive: 39.8 µM [inhibitor, partial curve]"
7,CCCC(=O)Nc1nnc(SCC(=O)N2C(C)CCCC2C)s1 (configuration not stated),inactive
8,COc1ccc2c(c1)[C@@H]1[C@H](CO2)[C@H](c2ccccc2)[C@]2(C)C(=O)Nc3ccc(C)cc3C(=O)N12,"inconclusive: 39.8 µM [inhibitor, partial curve]"
9,O=C(O)c1ccc(Cl)c(S(=O)(=O)NC(Cc2ccccc2)C(=O)O)c1 (configuration not stated),"inconclusive: 89.1 µM [inhibitor, partial curve]"
10,Cc1ccc(/C=N/NC(=O)c2cccnc2)o1,inactive
11,O=C(CSc1nc(-c2ccccc2)cc(=O)[nH]1)N1CCc2ccccc21,"inconclusive: 3.16 µM [inhibitor, single point]"
12,c1ccc(-c2nc(NCCCn3ccnc3)c3oc4ccccc4c3n2)cc1,"inconclusive: 56.2 µM [inhibitor, partial curve]"
13,COc1cccc(-n2c(SCC(=O)Nc3cc(C)on3)nc3ccccc3c2=O)c1,inactive
14,Cc1cccc(-n2nnnc2SCC(=O)Nc2ccc(N3CCN(C)CC3)cc2)c1,"inconclusive: 35.5 µM [inhibitor, partial curve]"
15,O=C(Nc1ccccc1)Nc1nccs1,"inconclusive: 39.8 µM [inhibitor, single point]"
16,CCN1C(=O)/C(=C2\SC(=S)N(CCCOC)C2=O)c2ccccc21,"inconclusive: 11.2 µM [inhibitor, partial curve, poor fit]"
17,O=C(CN1CCCCCC1)N/N=C/c1ccc(Cl)c(Cl)c1,active: 8.91 µM
18,Cc1ccc(NC(=O)Cn2cc(S(=O)(=O)Cc3ccc(F)cc3)c3ccccc32)cc1Cl,active: 56.2 µM
19,Cc1ccccc1CSc1nc(-c2cccc(F)c2)nc2c1Cc1c(CO)cnc(C)c1O2,inactive
20,CN1CCC(N(C)C(=O)/C=C/c2cn(-c3ccccc3)nc2-c2cccs2)CC1,"inconclusive: 7.94 µM [inhibitor, full curve, poor fit]"
21,CC(C)c1ccccc1-n1c(SCc2cc(=O)oc3ccc4ccccc4c23)nnc1-c1cccnc1,"inconclusive: 28.2 µM [inhibitor, single point]"
22,CCCn1nnnc1NCc1c(Cl)cccc1Cl,inactive
23,COc1ccc(N(CC(=O)NC2CCCCC2)C(=O)c2ccc(C)s2)c(OC)c1,inactive

row,SMILES,Potency
1,Cn1c(=O)c2c(ncn2CC(=O)N/N=C/C=C\c2ccccc2[N+](=O)[O-])n(C)c1=O,inactive
2,O=C(NCc1ccccc1)c1ccc2c(c1)S(=O)(=O)c1cc(Cl)ccc1C2=O,"inconclusive: 44.7 µM [inhibitor, partial curve]"
3,CN(C)CCCNC(=S)N(CCN(C)C)Cc1cc2cc3c(cc2[nH]c1=O)OCCO3,inactive
4,CS(=O)(=O)c1ccc(C(=O)OCC#CCSc2nnc(-c3cccc4ccccc34)o2)cc1,inactive
5,COc1ccc(OC)c(CNC(=O)c2ccc3c(c2)c(C)c(C)n3C)c1,"inconclusive: 56.2 µM [inhibitor, partial curve]"
6,C/C(=N\Nc1cccc(C(F)(F)F)c1)c1ccc(O)cc1,active: 44.7 µM
7,Cc1cccc(OCCNc2cc(N3CCN(CCO)CC3)ccc2[N+](=O)[O-])c1,"inconclusive: 28.2 µM [inhibitor, partial curve]"
8,CCOC(=O)CC(NC(=O)Cn1nnc(-c2ccccc2F)n1)c1ccc(OC)cc1 (configuration not stated),"inconclusive: 56.2 µM [inhibitor, partial curve, poor fit]"
9,O=C(O)c1[nH]c2ccccc2c1C(c1cc(Cl)cc([N+](=O)[O-])c1O)c1c(C(=O)O)[nH]c2ccccc12,"inconclusive: 50.1 µM [inhibitor, partial curve]"
10,O=C(NCc1ccc(Cl)s1)c1cc(COc2c(F)cccc2F)on1,"inconclusive: 7.08 µM [inhibitor, single point]"
11,COc1ccc(N2CCN(C(=O)CN3C(=O)COc4ccc(S(=O)(=O)N5CCC(C)CC5)cc43)CC2)cc1,"inconclusive: 79.4 µM [inhibitor, partial curve]"
12,Cc1ccc(NC2=C(N3CCCCC3)C(=O)c3ccccc3C2=O)cc1,active: 14.1 µM
13,CCC(C)NC(=O)c1cn(CC)c2ccc(S(=O)(=O)N3CCCCCC3)cc2c1=O (configuration not stated),inactive
14,Cc1cccc(NC(=O)CSCC(=O)Nc2sccc2C#N)c1,inactive
15,Cc1ccc2nc(-c3ccc(C)o3)c(Nc3ccc4c(c3)OCCO4)n2c1,"inconclusive: 14.1 µM [inhibitor, full curve, poor fit]"
16,CCOC(=O)c1c(-c2ccccc2)csc1NC(=O)c1cc(S(=O)(=O)N2CCOCC2)ccc1C,inactive
17,O=C(NCCc1c[nH]c2ccccc12)/C(=C\c1cccs1)NC(=O)c1ccccc1,"inconclusive: 22.4 µM [inhibitor, single point]"
18,CCc1ccc(-n2c(C)cc(/C=N/NC(=O)OC)c2C)cc1,"inconclusive: 50.1 µM [inhibitor, partial curve]"
19,CSCCC(NC(=O)c1ccc(Cl)c([N+](=O)[O-])c1)C(=O)N1CCN(C/C=C/c2ccccc2)CC1 (configuration not stated),"inconclusive: 39.8 µM [inhibitor, partial curve]"
20,Cc1cccc2cc(CN(CC3CCCO3)C(c3nnnn3Cc3ccco3)C(C)C)c(=O)[nH]c12 (configuration not stated),"inconclusive: 8.91 µM [inhibitor, partial curve, poor fit]"
21,CCOC(=O)CN1C(c2ccc(O)cc2)Nc2ccc(Br)cc2C1c1ccccc1 (configuration not stated),"inconclusive: 50.1 µM [inhibitor, partial curve]"
